# The supplement of paper PMC8728848
# This is one part of the list.
# B1: FliD (Clostridium difficile) (protein)
# chain: MSSISPVRVTGLSGNFDMEGIIEASMIRDKEKVNKAKQDQQIVKWKQEIYRDIIKESKNLYDKYLNGDSPNSITNKKAYSATRITSSDESIIVAKGSAGAEKINYQFAVSQMAEPAKVTIKLNSSDPIVQQFPPNASGASSLNIGGVNIPISEQDTTSTIVSKINSLCADNDIRASYSEMTGELIISRKQTGSSSDIDLKVIGNDSLAGQIASDNGITFTTDASGTKSAVVYGKNLEADVTDDQGRVTHISKEQNSFKIDNIDYNVNSKGSAKLVSVTDTEEATKNMKAFVDDYNALMDKVYGLVTTKKSKDYPPLTDEQKDDMTTEEIEKWEKKAKEGILRNDDELRAFVEDIQSMFFGDADTIIALRKLGISEHENYNKKGQISFNADTFSKALIDDSDKVYKALAGYSSNYDDKGMFEKLKKIVFEYSGSSASKLTKKAGMENSSSASQNVYSKQIAEQERNISRLVEKMNDKEKRLYAKYSALESLLNKYSSQMNYFSQAQGN
# Experiments:
# Experiment in all cases: glycan array binding signal (z-score within array); higher = stronger binding
# Settings in all cases: glycan notation: IUPAC condensed, linker removed
# [1] = target: Fuc(a1-2)Gal
# How it was run: (§1)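 Glycan array data came from 3228 arrays in the Consortium for Functional Glycomics database, and only arrays with an available protein sequence were kept. Glycan names were put into IUPAC-condensed notation, and columns mapping to the same glycan were averaged. The binding signal is a within-array Z-score, averaged across arrays of one protein sequence run at different concentrations or buffers and across linkers. A negative Z-score can be read as non-binding.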
# [2] = target: Fuc(a1-2)Gal(b1-3)GalNAc
# How it was run: as §1
# [3] = target: Fuc(a1-2)Gal(b1-3)GalNAc(a1-3)[Fuc(a1-2)]Gal(b1-4)Glc
# How it was run: as §1
# [4] = target: Fuc(a1-2)Gal(b1-3)GalNAc(a1-3)[Fuc(a1-2)]Gal(b1-4)GlcNAc
# How it was run: as §1
# [5] = target: Fuc(a1-2)Gal(b1-3)GalNAc(b1-3)Gal
# How it was run: as §1
# [6] = target: Fuc(a1-2)Gal(b1-3)GalNAc(b1-3)Gal(a1-4)Gal(b1-4)Glc
# How it was run: as §1
# [7] = target: Fuc(a1-2)Gal(b1-3)GalNAc(b1-4)[Neu5Ac(a2-3)]Gal(b1-4)Glc
# How it was run: as §1
# [8] = target: Fuc(a1-2)Gal(b1-3)GlcNAc
# How it was run: as §1
# [9] = target: Fuc(a1-2)Gal(b1-3)GlcNAc(b1-2)Man(a1-3)[Fuc(a1-2)Gal(b1-3)GlcNAc(b1-2)Man(a1-6)]Man(b1-4)GlcNAc(b1-4)GlcNAc
# How it was run: as §1
# [10] = target: Fuc(a1-2)Gal(b1-3)GlcNAc(b1-2)Man(a1-3)[Fuc(a1-2)Gal(b1-3)GlcNAc(b1-2)Man(a1-6)]Man(b1-4)GlcNAc(b1-4)[Fuc(a1-6)]GlcNAc
# How it was run: as §1
# [11] = target: Fuc(a1-2)Gal(b1-3)GlcNAc(b1-3)Gal(b1-4)Glc
# How it was run: as §1
# [12] = target: Fuc(a1-2)Gal(b1-3)GlcNAc(b1-3)GalNAc
# How it was run: as §1
# [13] = target: Fuc(a1-2)Gal(b1-3)GlcNAc(b1-3)[Fuc(a1-2)Gal(b1-3)GlcNAc(b1-6)]GalNAc
# How it was run: as §1
# [14] = target: Fuc(a1-2)Gal(b1-3)GlcNAc(b1-3)[Gal(b1-4)GlcNAc(b1-6)]Gal(b1-4)Glc
# How it was run: as §1
# [15] = target: Fuc(a1-2)Gal(b1-3)GlcNAc(b1-3)[Neu5Ac(a2-6)Gal(b1-4)GlcNAc(b1-6)]Gal(b1-4)Glc
# How it was run: as §1
# [16] = target: Fuc(a1-2)Gal(b1-3)GlcNAc6S
# How it was run: as §1
# [17] = target: Fuc(a1-2)Gal(b1-3)[Fuc(a1-4)]GlcNAc
# How it was run: as §1
# [18] = target: Fuc(a1-2)Gal(b1-3)[Fuc(a1-4)]GlcNAc(b1-2)Man(a1-3)[Fuc(a1-2)Gal(b1-3)[Fuc(a1-4)]GlcNAc(b1-2)Man(a1-3)]Man(b1-4)GlcNAc(b1-4)GlcNAc
# How it was run: as §1
# [19] = target: Fuc(a1-2)Gal(b1-3)[Fuc(a1-4)]GlcNAc(b1-2)Man(a1-3)[Fuc(a1-2)Gal(b1-3)[Fuc(a1-4)]GlcNAc(b1-2)Man(a1-6)]Man(b1-4)GlcNAc(b1-4)[Fuc(a1-6)]GlcNAc(b1-4)[Fuc(a1-6)]GlcNAc
# How it was run: as §1
# [20] = target: Fuc(a1-2)Gal(b1-3)[Fuc(a1-4)]GlcNAc(b1-3)[Fuc(a1-3)[Gal(b1-4)]GlcNAc(b1-6)]Gal(b1-4)Glc
# How it was run: as §1
# [21] = target: Fuc(a1-2)Gal(b1-3)[Fuc(a1-4)]GlcNAc(b1-3)[Gal(b1-4)GlcNAc(b1-6)]Gal(b1-4)Glc
# How it was run: as §1
# [22] = target: Fuc(a1-2)Gal(b1-4)Glc
# How it was run: as §1
# [23] = target: Fuc(a1-2)Gal(b1-4)Glc6S
# How it was run: as §1
# [24] = target: Fuc(a1-2)Gal(b1-4)GlcNAc
# How it was run: as §1
# [25] = target: Fuc(a1-2)Gal(b1-4)GlcNAc(b1-2)Man
# How it was run: as §1
# [26] = target: Fuc(a1-2)Gal(b1-4)GlcNAc(b1-2)Man(a1-3)[Fuc(a1-2)Gal(b1-4)GlcNAc(b1-2)Man(a1-6)]Man(b1-4)GlcNAc(b1-4)GlcNAc
# How it was run: as §1
# [27] = target: Fuc(a1-2)Gal(b1-4)GlcNAc(b1-2)Man(a1-3)[Fuc(a1-2)Gal(b1-4)GlcNAc(b1-2)Man(a1-6)]Man(b1-4)GlcNAc(b1-4)[Fuc(a1-6)]GlcNAc
# How it was run: as §1
# [28] = target: Fuc(a1-2)Gal(b1-4)GlcNAc(b1-2)[Fuc(a1-2)Gal(b1-4)GlcNAc(b1-4)]Man(a1-3)[Fuc(a1-2)Gal(b1-4)GlcNAc(b1-2)Man(a1-6)]Man(b1-4)GlcNAc(b1-4)GlcNAc
# How it was run: as §1
# [29] = target: Fuc(a1-2)Gal(b1-4)GlcNAc(b1-3)Gal(b1-4)GlcNAc
# How it was run: as §1
# [30] = target: Fuc(a1-2)Gal(b1-4)GlcNAc(b1-3)Gal(b1-4)GlcNAc(b1-2)Man(a1-3)[Fuc(a1-2)Gal(b1-4)GlcNAc(b1-3)Gal(b1-4)GlcNAc(b1-2)Man(a1-6)]Man(b1-4)GlcNAc(b1-4)GlcNAc
# How it was run: as §1
binder,measurement,setting,value
B1,glycan array binding signal (z-score),[1],0.05
same,glycan array binding signal (z-score),[2],-0.184
same,glycan array binding signal (z-score),[3],-0.104
same,glycan array binding signal (z-score),[4],-0.194
same,glycan array binding signal (z-score),[5],-0.067
same,glycan array binding signal (z-score),[6],-0.241
same,glycan array binding signal (z-score),[7],-0.181
same,glycan array binding signal (z-score),[8],0.103
same,glycan array binding signal (z-score),[9],0.334
same,glycan array binding signal (z-score),[10],0.028
same,glycan array binding signal (z-score),[11],0.071
same,glycan array binding signal (z-score),[12],0.115
same,glycan array binding signal (z-score),[13],0.089
same,glycan array binding signal (z-score),[14],0.059
same,glycan array binding signal (z-score),[15],-0.046
same,glycan array binding signal (z-score),[16],0.108
same,glycan array binding signal (z-score),[17],-0.195
same,glycan array binding signal (z-score),[18],-0.113
same,glycan array binding signal (z-score),[19],-0.156
same,glycan array binding signal (z-score),[20],-0.26
same,glycan array binding signal (z-score),[21],-0.265
same,glycan array binding signal (z-score),[22],-0.046
same,glycan array binding signal (z-score),[23],-0.185
same,glycan array binding signal (z-score),[24],-0.075
same,glycan array binding signal (z-score),[25],-0.018
same,glycan array binding signal (z-score),[26],0.171
same,glycan array binding signal (z-score),[27],-0.151
same,glycan array binding signal (z-score),[28],-0.101
same,glycan array binding signal (z-score),[29],-0.095
same,glycan array binding signal (z-score),[30],0.047
